# From PubChem BioAssay AID1347120 (National Center for Advancing Translational Sciences (NCATS), 2019)
# Screen size: about 390,000 compounds; about 930 (0.24%) were called active. The inconclusive results got no clear call from the source; some entries with a clear call stand among them for comparison. Calls come from the whole dose curve; as a rule, active = well fitted activation curve with a large enough effect; inconclusive = small, poorly fitted or top-dose-only effect; inactive = no such curve, though single readings can be large or run the other way. Potencies beside an inconclusive call are fits to weak or partial responses and may not hold up.
# Assay: qHTS for Suppressors of FUS Proteinopathy: Primary screen using FUS-linked yeast assay; note: nearly all actives have a fitted effect of over 55% in size;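 for growth rescue (activation): plate controls were DMSO vehicle for no effect and reference control for full effect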
# Conditions: S. cerevisiae FUS-expressing, OD600, 24 h; Potency: growth rescue; growth rescue (activation): at 76.6 µM (top of the series)
# Procedure, shortened: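 Yeast FUS proteinopathy model; galactose-induced FUS (2%), starting OD 0.005. Cpds in dilution series, 24hr, 30C, 99% humidity. Abs 600 nm growth. Pos ctrl CP55940 (top 92uM final); neg ctrl DMSO.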
# Potency is the fitted concentration of half-maximal effect; tags give direction and shape of the fitted curve.
Compound,growth rescue (activation),Potency
COc1ccc(C(=O)OCCN2CCN(C3CN(Cc4cn(Cc5cccc(F)c5)nn4)S(=O)(=O)C3)CC2)cc1OC (configuration not stated),inactive: 0.849%,
CN(Cc1cccc(F)c1)C(=O)c1cc(S(=O)(=O)N2CCOCC2)ccc1N1CCCC1,,"inconclusive: 3.55 µM [activator, full curve, poor fit]"
Cc1sc2nc(CSc3ccccc3)nc(N3CCC(C(N)=O)CC3)c2c1C,,"inconclusive: 25.1 µM [activator, single point]"
COc1ccc(S(=O)(=O)n2nc(-c3ccco3)nc2NCc2ccc(N(C)C)cc2)cc1,,active: 31.6 µM
C=CC[C@@H](CC(=O)N(CCO)Cc1ccccc1)C(=O)NC[C@@H](OC(=O)[C@@H](CC=C)Cc1ccc(F)cc1)c1ccccc1,,"inconclusive: 31.6 µM [activator, single point]"
Cc1nn2c(nc(N3CCCCC3)c3ccccc32)c1C=O,inactive: 8.25%,
Cc1cc(=O)oc2c(C)c(OCC(=O)NCCCN3CCOCC3)ccc12,inactive: 6.38%,
Cc1cc(C(C)(C)C)ccc1OCCN(C)C,inactive: -22%,
CCOc1ccccc1C(=O)Nc1ccc(S(=O)(=O)Nc2onc(C)c2C)cc1,inactive: 12.5%,
CN(C)c1nc(OCCOC(=O)COc2ccc(Cl)cc2Cl)nc(N(C)C)n1,,"inconclusive: 28.2 µM [activator, partial curve, poor fit]"
COc1ccc(S(=O)(=O)N(C)C[C@H]2Oc3ncc(C#CC4(O)CCCC4)cc3C(=O)N([C@@H](C)CO)C[C@@H]2C)cc1,,"inconclusive: 12.6 µM [activator, partial curve]"
CCC(C)[C@H](NC(=O)C1(c2ccccc2)CCN(C(=O)OC(C)(C)C)CC1)C(=O)N[C@@H](C(=O)O)c1ccccc1 (some centres not stated),,"inconclusive: 14.1 µM [activator, partial curve]"
Cc1cccc(C(=O)OC(C)C(=O)Nc2ccc(S(=O)(=O)N3CCCC3)cc2)c1O (configuration not stated),,"inconclusive: 56.2 µM [activator, partial curve, poor fit]"
O=C(Nc1nc(-c2cccs2)cs1)c1ccc(Cl)cc1,inactive: 3.31%,
Cc1ccc(-c2nnc(-c3ccc(NC(=O)Cc4cccs4)cc3)o2)cc1,inconclusive: 64.8% [activator],
COCCNC(=O)c1c(-c2ccccc2)c(-c2ccccc2)nn(C)c1=O,,"inconclusive: 11.2 µM [activator, single point]"
CCOC(=O)N1CCN(C(=O)C[C@H]2C[C@@]3(C(=O)OC)C(=C[C@H](C4CCCC4)O[C@@H]3C)N(Cc3ccc(Cl)cc3Cl)C2=O)CC1,,"inconclusive: 17.8 µM [activator, partial curve]"
O=C1N2CCc3ccccc3C2CS(=O)(=O)N1Cc1ccc(F)cc1 (configuration not stated),inactive: -6.18%,
CCN(CC)c1nc(C(N)=O)cc(-c2ccccc2)n1,inactive: 25.4%,
COc1ccccc1N1CCN(C(=O)c2ccc(C(C)(C)C)cc2)CC1,,"inconclusive: 39.8 µM [activator, partial curve, poor fit]"
O=C(c1cccc(-n2cccc2)c1)N1CCN(S(=O)(=O)c2ccc(F)cc2)CC1,,"inconclusive: 3.98 µM [activator, full curve, poor fit]"

Compound,growth rescue (activation),Potency
Cc1ccc(NC(=O)c2ccccc2NS(=O)(=O)c2ccc(Cl)s2)cc1S(=O)(=O)N1CCOCC1,,"inconclusive: 10 µM [activator, partial curve, poor fit]"
Cc1ccc(S(=O)(=O)c2nnn3c2nc(NC(C)c2ccccc2)c2sccc23)cc1 (configuration not stated),inactive: -9.71%,
CC(=O)Nc1cccc(-c2ccnc3c2CC(C)(C(=O)Nc2ccc(F)c(Cl)c2)O3)c1 (configuration not stated),,"inconclusive: 35.5 µM [activator, single point]"
CCOc1ccc(N(C)c2ccc(/C=C3/SC(=S)NC3=O)cc2)cc1,inactive: 38.5%,
O=C(C1=C[C@H](c2ccc(C(F)(F)F)cc2)C[C@H](OCc2ccc(CO)cc2)O1)N1CCCCCCC1,,"inconclusive: 50.1 µM [activator, single point]"
CCCN(CCC)S(=O)(=O)c1ccc2c(c1)N(CC(=O)NCc1ccc(F)cc1Cl)C(=O)CS2,,"inconclusive: 22.4 µM [activator, partial curve, poor fit]"
COc1ccc(Cl)cc1N1Cc2ccccc2C1,,"inconclusive: 11.2 µM [activator, single point]"
CC1=NN(c2ccc(C)c(C)c2)C(=O)C1C(c1cccc(O)c1)C1C(=O)N(c2ccc(C)c(C)c2)N=C1C (configuration not stated),,"inconclusive: 50.1 µM [activator, single point]"
O=C(O)Cn1cc(C(=O)C2CC2)c2ccccc21,inconclusive: 10.7% [activator],
COc1ccc(OC)c(-c2nnc3n2N=C(c2ccc(OC)c(OCC4CC4)c2)CS3)c1,,active: 28.2 µM
Cc1ccc(Cl)cc1N1CCN(C(=O)C2CCN(S(=O)(=O)c3cccc4nonc34)CC2)CC1,,"inconclusive: 39.8 µM [activator, single point]"
COc1ccc(S(=O)(=O)N2CCC(C(N)=O)(N3CCCCC3)CC2)cc1,inactive: -23.3%,
Cc1cc(C(C)(C)C)cc(C)c1C[n+]1ccc2ccccc2c1,inactive: 15.9%,
CCn1c(/C(C#N)=C/c2ccccc2Cl)nc2ccccc21,inactive: -5.78%,
CCc1cccc(NC(=O)CSc2nc3ccsc3c(=O)n2CC)c1,,"inconclusive: 31.6 µM [activator, single point]"
C[C@H](CO)N1C[C@H](C)[C@@H](CN(C)C(=O)Nc2ccc3c(c2)OCO3)Oc2ccc(NC(=O)C3CCCCC3)cc2C1=O,,"inconclusive: 11.2 µM [activator, partial curve]"
Cc1ccc(CN(Cc2cccn2-c2nnc(N3CCCC3=O)s2)C(=O)Nc2ccccc2C(F)(F)F)cc1,,"inconclusive: 39.8 µM [activator, single point]"
COc1ccc(-n2c(C)cc(C(=O)CSc3nnc(-c4cccs4)o3)c2C)cc1,,"inconclusive: 25.1 µM [activator, single point]"
Cc1ccc(NC(=O)c2cnn(-c3ccccc3)c2C)cc1C,inactive: 2.85%,
COc1ccc(Nc2c3c(nc4ccc(NC(=O)/C=C/c5cccc(OC)c5OC)cc24)CCCC3)cc1OC,,"inconclusive: 2.51 µM [activator, full curve]"
O=C1CC(N2CCN(c3ccc(Cl)c(Cl)c3)CC2)C(=O)N1 (configuration not stated),inactive: 5.38%,

Compound,growth rescue (activation),Potency
C[C@@H]1CC[C@]2(C(=O)O[C@@H]3O[C@H](CO)[C@@H](O)[C@H](O)[C@H]3O)CC[C@]3(C)C(=CCC4[C@@]5(C)C[C@@H](O)[C@H](O)[C@@](C)(C(=O)O[C@@H]6[C@H](O)C[C@@]7(C)C(CC[C@]8(C)C7CC=C7[C@H]9[C@](C(=O)O[C@@H]%10O[C@H](CO)[C@@H](O)[C@H](O)[C@H]%10O)(CC[C@@H](C)[C@@]9(C)O)CC[C@]78C)[C@@]6(CO)C(=O)O)C5CC[C@]43C)[C@@H]2[C@]1(C)O (some centres not stated),,active: 12.6 µM
CCOc1ccc(S(=O)(=O)N2CCOCC2)cc1NC(=O)CN1C(=O)NC(CC)(c2ccccc2)C1=O (configuration not stated),,"inconclusive: 31.6 µM [activator, single point]"
COc1ccc(NC(=O)CCCC(=O)OCC(F)(F)C(F)F)cc1,inactive: 17.5%,
CN(C(=S)Nc1ccc(SC(F)F)cc1)C(c1ccccc1)c1ccccc1,inactive: 15.9%,
N=c1c2c3c(sc2ncn1Nc1ccccc1)CCC3,inactive: 7.61%,
COc1ccc(Br)c(Cn2c(C)c(C(=O)N(C)Cc3ccc(F)cc3)sc2=O)c1,,"inconclusive: 35.5 µM [activator, single point]"
CN(C)c1ccc(C(CNC(=O)c2ccccc2)c2c[nH]c3ccccc23)cc1 (configuration not stated),,active: 11.2 µM
O=C(NCc1ccc(F)cc1)c1cc(C2CCCN(C(=O)CCCc3ccccc3)C2)on1 (configuration not stated),,"inconclusive: 25.1 µM [activator, partial curve, poor fit]"
Cc1cccc(C)c1NC(=O)CCCN1C(=O)CCn2nc(-c3cn(C)c4ccccc34)cc21,,"inconclusive: 28.2 µM [activator, single point]"
CC(NC(=O)c1ccc2c(c1)N(Cc1ccc(Cl)cc1)C(=O)c1ccccc1S2=O)c1ccccc1 (configuration not stated),,active: 25.1 µM
Cc1cccc(C(=O)NC(=S)N2CCc3ccccc3C2)c1,inactive: 16.6%,
C[C@@]12CCC=C[C@H]1[C@H](c1ccc(C(F)(F)F)cc1)N(Cc1ccccc1)C2=O,,"inconclusive: 50.1 µM [activator, single point]"
N#CCC(=O)N/N=C/c1ccc(Cl)cc1,,"inconclusive: 44.7 µM [activator, single point]"
c1ccc(-c2cc(-c3nnc4sc(Cc5cccs5)nn34)[nH]n2)cc1,,"inconclusive: 22.4 µM [activator, single point]"
O=C(CSc1nnc(Cc2ccccc2)o1)N1CCc2ccccc21,,"inconclusive: 2.82 µM [activator, partial curve, poor fit]"
Cc1nn(CCCC(=O)NCc2ccc(F)cc2)c(=O)c2nccn12,inactive: -26.6%,
O=C(CSc1nnc(CCc2ccccc2)n1-c1ccc(Cl)cc1)NCc1ccccc1,,"inconclusive: 31.6 µM [activator, single point]"
CC(C)(C)OC(=O)NCCCC[C@H](NC(=O)c1nc[nH]c1C(=O)NCc1ccccc1)C(=O)OC(C)(C)C,,"inconclusive: 25.1 µM [activator, single point]"
C#CCNC(=O)C1=C[C@@H](c2ccc(Br)cc2)C[C@@H](OCc2ccc(CO)cc2)O1,,"inconclusive: 25.1 µM [activator, single point]"
Cc1cc(NS(=O)(=O)c2ccc(NS(=O)(=O)c3ccc(CC(C)C)cc3)cc2)nc(C)n1,,"inconclusive: 44.7 µM [activator, single point]"
